Hit rate of the full screen: of about 390,000 compounds, about 150 (0.038%) were called active. Inconclusive results, whose numbers are uncertain, are shown with a selection of clear calls. Calls follow the shape of the dose curve; as a rule, active = well fitted inhibition curve with a large enough effect; inconclusive = small, poorly fitted or top-dose-only effect; inactive = no such curve, though single readings can be large or run the other way. Where the call is inconclusive, the potency comes from a doubtful curve fit. The source holds several records for some structures; these can differ, active in one and inactive in another.
These molecules were tested against Regulator of G-protein signaling 4 (Homo sapiens) (UniProt P49798) (assay: Inhibitors of Regulator of G Protein Signaling (RGS) 4: qHTS). Conditions: Transcreener GDP fluorescence polarization, RGS4-accelerated GTP hydrolysis; series mostly up to 114 µM; activity change, negative = inhibition: at the top concentration.
How it was run: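 MLSMR compounds (23 nl, pin-transferred) preincubated 10 min at room temperature with a 500nM (2x) first reagent, then RGS4 at 900nM (2x) plus Transcreener GDP mix added; fluorescence polarization (620/688 nm) read before and after 90 min at 30 °C.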
% is scaled to controls: 0 for no effect and ±100 for the full control effect; potency is read from the fitted curve at half-maximal effect; tags tell the direction and shape of the fitted curve.
Also: nearly all actives have a fitted effect of over 75% in size.

Chain of UniProt P49798 (P49798 whole entry, looked up): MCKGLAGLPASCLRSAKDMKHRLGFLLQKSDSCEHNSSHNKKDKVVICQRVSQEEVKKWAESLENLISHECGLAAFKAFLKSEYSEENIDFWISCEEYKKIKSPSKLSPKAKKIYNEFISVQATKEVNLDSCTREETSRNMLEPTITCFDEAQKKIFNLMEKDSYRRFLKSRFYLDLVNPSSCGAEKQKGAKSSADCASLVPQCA

SMILES	Potency	activity change, negative = inhibition
Cc1ccc(-c2csc3ncnc(N4CCN(C(=O)c5ccco5)CC4)c23)cc1	inconclusive: 56.2 µM [inhibitor, partial curve, poor fit]	–
COc1ccc(NC(=O)CCCOc2ccc(Cl)c(C)c2)cc1S(=O)(=O)N1CCOCC1	inconclusive: 89.1 µM [inhibitor, single point]	–
CC1(C)CC(=O)C/C(=N\NC(=O)c2cccs2)C1	inconclusive: 79.4 µM [inhibitor, partial curve, poor fit]	–
Cc1nnc(NC(=O)c2ccco2)s1	inconclusive: 79.4 µM [inhibitor, single point]	–
N#CC/C(N)=N/NC(=O)CCCNc1ncc(C(F)(F)F)cc1Cl	inconclusive: 31.6 µM [inhibitor, full curve, poor fit]	–
CC1CCCC(C)N1C(=O)CSc1nnc(-c2c[nH]c3ccccc23)o1 (stereo not given)	–	inactive: -10%
COc1ccc(CCNC(=O)CSc2nnnn2-c2ccc(OC)c(OC)c2)cc1OC	inconclusive: 89.1 µM [inhibitor, single point]	–
NC1CCN(c2nc3c(cc2F)c(=O)c(C(=O)O)cn3-c2ccc(F)cc2F)C1 (stereo not given)	inconclusive: 44.7 µM [inhibitor, partial curve, poor fit]	–
CC12CCC(C(N)=O)(c3nc4ccccc4nc31)C2(C)C (stereo not given)	inconclusive: 89.1 µM [inhibitor, single point]	–
CCN1/C(=C/C(C)=C/c2sc3ccccc3[n+]2CC)Sc2ccccc21	inconclusive: 79.4 µM [inhibitor, single point]	–
CCCC(=O)Nc1ccccc1OCc1cc(=O)n2cc(C)ccc2n1	–	inactive: 45.3%
C=CCn1c(C)cc(-c2csc(NCC)n2)c1C	inconclusive: 17.8 µM [inhibitor, full curve, poor fit]	–
Cc1ccc2nc(/C(C#N)=C/c3ccc(-c4cccc([N+](=O)[O-])c4)o3)[nH]c2c1	inconclusive: 39.8 µM [inhibitor, partial curve, poor fit]	–
O=C(CSc1ccc(-c2ccco2)nn1)c1ccccc1	inconclusive: 50.1 µM [inhibitor, partial curve, poor fit]	–
O=C(Nc1nc(=O)c2ccccc2s1)c1ccc(F)cc1	inconclusive: 10 µM [inhibitor, full curve, poor fit]	–
Cc1cccc(NC(=O)CN(CC2CCCO2)C(=O)c2oc3ccc(F)cc3c2C)c1C (stereo not given)	–	inactive: -29.2%
COc1ccc2sc(N(Cc3cccnc3)C(=O)c3ccc4c(c3)OCCO4)nc2c1	–	inactive: 28.4%
COc1ccc(S(=O)(=O)Nc2ccccc2OC)cc1NC(=O)Cc1cccs1	inconclusive: 44.7 µM [inhibitor, partial curve, poor fit]	–
O=c1cc(-c2ccccc2)oc2cccc(O)c12	active: 8.44 µM	–
O=C(CSc1ccc(-c2ccco2)nn1)Nc1ccc(F)cc1F	inconclusive: 44.7 µM [inhibitor, partial curve, poor fit]	–
O=C(NC1CCN(CCc2c[nH]c3ccccc23)CC1)c1ccccc1	–	inactive: 8.91%
COc1cc(/C=N/NC2=NS(=O)(=O)c3ccccc32)cc(OC)c1OC	inconclusive: 79.4 µM [inhibitor, partial curve, poor fit]	–

SMILES	Potency	activity change, negative = inhibition
CCOC(=O)c1sc2nc(N3CCOCC3)c3c(c2c1N)CC(C(C)C)OC3 (stereo not given)	–	inactive: -7.39%
CSc1ccc(CN(C)C(=O)COc2ccc(C(=O)c3ccccc3)cc2)cc1	inconclusive: 89.1 µM [inhibitor, single point]	–
Cc1cc(C)c(C)c(OCC(O)CN2CCN(c3ccccn3)CC2)c1 (stereo not given)	–	inactive: 7.43%
O=C1CC(=O)N(CCc2ccc(F)cc2)C(=O)N1	inconclusive: 50.1 µM [inhibitor, partial curve, poor fit]	–
COc1cccc(C2=Nn3c(nnc3-c3ccccc3O)SC2)c1	inconclusive: 79.4 µM [inhibitor, partial curve, poor fit]	–
Cc1ccc(NS(=O)(=O)c2coc(C(N)=O)c2)cc1F	inconclusive: 79.4 µM [inhibitor, partial curve, poor fit]	–
COc1cc(/C=C2\SC(=S)N(CCC(=O)Nc3cccc(O)c3)C2=O)cc(OC)c1OC	–	inactive: -15%
Cc1[nH][nH]c(=O)c1C(c1ccc(-c2ccc(C(=O)O)cc2)o1)c1c(C)[nH][nH]c1=O	inconclusive: 50.1 µM [inhibitor, partial curve, poor fit]	–
CCc1ccc(-n2nc(C)c3c(C)cc(=O)n(CC(=O)Nc4ccc(C(C)=O)cc4)c32)cc1	–	inactive: -22.5%
CN(C)c1ccc(/C=C/c2noc(-c3ccccc3O)n2)cc1	inconclusive: 79.4 µM [inhibitor, partial curve, poor fit]	–
COc1ccc(-c2csc(NC(=O)CSc3nc(C)nc4sc(C(=O)O)c(C)c34)n2)cc1	inconclusive: 44.7 µM [inhibitor, partial curve, poor fit]	–
COc1ccc(-c2c3c(cc(C)[n+]2[O-])oc2ccc(OC)cc23)cc1	–	inactive: -8.6%
CCOc1cc(/C=N/Nc2nncc(-c3ccccc3)n2)ccc1O	inconclusive: 79.4 µM [inhibitor, partial curve, poor fit]	–
Cc1ccc2sc(C)[n+](CCO)c2c1	inconclusive: 89.1 µM [inhibitor, partial curve, poor fit]	–
COc1ccccc1N(CC(=O)Nc1ccc(C(F)(F)F)cc1)S(C)(=O)=O	inconclusive: 70.8 µM [inhibitor, single point]	–
COC(=O)c1ccc(C(=O)OC)c(NC(=S)N2CCN(c3ccccc3)CC2)c1	inconclusive: 79.4 µM [inhibitor, partial curve, poor fit]	–
O=C(N/N=C/c1cc(Cl)ccc1O)c1ccncc1	–	inactive: -63.6% [at 11.4 µM]
CCS(=O)(=O)c1ncc(Cl)c(C(=O)Nc2ccc(S(=O)(=O)N3CCCC(C)C3)cc2)n1 (stereo not given)	inconclusive: 31.6 µM [inhibitor, full curve, poor fit]	–
Cc1ccc(CSCC2Nc3ccc(C(=O)N4CCN(c5ccc(F)cc5)CC4)cc3NC2=O)cc1 (stereo not given)	inconclusive: 31.6 µM [inhibitor, partial curve, poor fit]	–
COc1cc(C(=O)Nc2ccc(C#N)cc2)c([N+](=O)[O-])cc1OC	inconclusive: 89.1 µM [inhibitor, single point]	–
Cc1ccc(N2C(=O)N(CC(=O)Nc3ccc(F)c(F)c3)C(=O)C2C)cc1 (stereo not given)	–	inactive: -4.97%
Cc1cccc(C)c1Nc1nnc(SCC(=O)c2ccc(Br)s2)s1	inconclusive: 50.1 µM [inhibitor, partial curve, poor fit]	–

SMILES	Potency	activity change, negative = inhibition
O=C(CCN1C(=O)/C(=C/c2ccccc2Cl)SC1=S)NC1CCCC1	–	inactive: -11.5%
CSc1cc(-c2ccc(Cl)cc2)c(C(=O)N2CCCC2)s1	inconclusive: 89.1 µM [inhibitor, single point]	–
O=C(O)c1ccc(NC2=C(Cl)C(=O)c3ccccc3C2=O)cc1	inconclusive: 35.5 µM [inhibitor, partial curve, poor fit]	–
COCCCNCCOCCOc1ccc(C)cc1Br	inconclusive: 79.4 µM [inhibitor, partial curve, poor fit]	–
O=C(O)C1Nc2c(O)cc(Cl)c([N+](=O)[O-])c2C2C=CCC12 (stereo not given)	inconclusive: 50.1 µM [inhibitor, partial curve, poor fit]	–
O=C(COC(=O)CSc1ccc([N+](=O)[O-])cc1)NC1CCCCCCC1	inconclusive: 56.2 µM [inhibitor, partial curve, poor fit]	–
Cc1ccc(C2c3[nH]c4ccccc4c3CCN2C(=O)c2ccccc2Br)cc1 (stereo not given)	–	inactive: 2.43%
C/C(=N\NC(=O)c1ccccc1C)c1ccc(N2CCOCC2)cc1	inconclusive: 89.1 µM [inhibitor, single point]	–
Cc1ccc2c3c(cccc13)-c1ccccc1C2=O	–	inactive: -0.19%
COc1ccc(NC(=O)CN2CCC(C(N)=O)(N3CCCCC3)CC2)c(OC)c1	–	inactive: 0.213%
CCOC(=O)c1nc(S(C)(=O)=O)ncc1Cl	inconclusive: 17.8 µM [inhibitor, full curve, poor fit]	–
CCOC(=O)/C(C#N)=C/c1cc2ccccc2nc1N1CCOCC1	–	inactive: -29.2%
CS(=O)(=O)N(CCC(=O)O)Cc1ccccc1	inconclusive: 89.1 µM [inhibitor, single point]	–
COc1ccc(OC)c(NC(=O)c2c(NCc3sccc3C)sc3c2CCCCC3)c1	inconclusive: 50.1 µM [inhibitor, partial curve, poor fit]	–
COc1ccc2c(c1)-c1nc(NC(=O)c3ccc(OC)c(Br)c3)sc1CC2	–	inactive: -3.12%
CC(C)c1nc2sc3c(=S)nc[nH]c3c2c2c1CCC2	inconclusive: 89.1 µM [inhibitor, single point]	–
CCOC(=O)C1=C(O)/C(=C\c2cc(C)n(-c3ccccc3F)c2C)N=C1C	inconclusive: 56.2 µM [inhibitor, partial curve, poor fit]	–
COc1cc(/C=C/c2ccc3c(Br)cc(Br)c(O)c3n2)ccc1O	inconclusive: 31.6 µM [inhibitor, full curve, poor fit]	–
Cc1ccc(NC(=S)Nc2cc(-c3ccccc3)[nH]n2)cc1Cl	inconclusive: 44.7 µM [inhibitor, partial curve, poor fit]	–
CCOC(=O)Nc1ccc2c(c1)N(C(=O)OCCN(C)C)c1ccccc1CC2	inconclusive: 79.4 µM [inhibitor, partial curve, poor fit]	–
CCc1ccc(CCC(=O)N2CCN(S(=O)(=O)c3sc(C(=O)O)c(C)c3C(=O)O)CC2)cc1	inconclusive: 89.1 µM [inhibitor, single point]	–

— PubChem BioAssay AID504845 (National Center for Advancing Translational Sciences (NCATS), 2011)
